From PubChem BioAssay AID2546 (National Center for Advancing Translational Sciences (NCATS), 2010)
The whole screen tested about 310,000 compounds, of which about 11,000 (3.5%) were called active. The shares of active, inactive and inconclusive entries below differ from those in the screen. Calls come from the whole dose curve; as a rule, active = well fitted inhibition curve with a large enough effect; inconclusive = small, poorly fitted or top-dose-only effect, or effect the other way; inactive = flat fitted curve, though single readings scatter. Potencies of inconclusive entries are left out as doubtful fits.
Potency is the fitted concentration of half-maximal effect; tags give direction and shape of the fitted curve.

Test: VP16 counterscreen qHTS for inhibitors of ROR gamma transcriptional activity;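 note: Gal4-VP16 expression switched on by copper sulfate through the metallothionein promoter; nearly all actives have a fitted effect of over 50% in size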
Details: Drosophila S2 Gal4-VP16 UAS-luciferase, luminescence, 20 h; series mostly up to 53.6 µM
In the case of `COc1ccc(C(=O)COC(=O)c2ccco2)cc1`, the Potency is reported as inconclusive [activator, single point].
For `CCOc1ccc2[nH]c(=O)c(C(c3nnnn3C3CCCCC3)N3CCN(CC)CC3)cc2c1` (stereo not drawn), the Potency was “inactive”.
With `Nc1c(C(=O)NC2CC2)c2nc3ccccc3nc2n1-c1ccc2c(c1)OCO2` the Potency was inconclusive [inhibitor, partial curve].
In the case of `Cc1ccc(C=Nc2cccnc2N)cc1`, the Potency is reported as inconclusive [activator, single point].
With `CCOC(=O)C(C(=O)OCC)C(Nc1ccc(Br)cc1)c1ccccc1` (stereo not drawn) the Potency was inconclusive [inhibitor, single point].
For `Cn1ncc(Cl)c1C(=O)Nc1ccncc1`, the Potency was “inactive”.
With `O=C(NCc1cccnc1)/C(=C\c1ccc(-c2cccc(Cl)c2)o1)S(=O)(=O)c1ccccc1` the Potency was active: 12.6 µM.
In the case of `O=C(Nc1ccc(OC(F)(F)F)cc1)Oc1ccccc1N1CCOCC1`, the Potency is reported as “inactive”.
For `COc1cccc(-n2c(C)c3c(OC)cccc(=O)c3c2C)c1`, the Potency was inconclusive [inhibitor, single point].
In the case of `COc1ccc(CN2C(=O)CC(C(=O)NCCc3ccc(S(N)(=O)=O)cc3)SC2=Nc2ccccc2)cc1` (stereo not drawn), the Potency is reported as inconclusive [inhibitor, single point].
In the case of `COc1cccc(-c2csc(NC3OC(=O)c4c3ccc(OC)c4OC)n2)c1` (stereo not drawn), the Potency is reported as inconclusive [activator, full curve, poor fit].
In the case of `O=C(NCC(=O)N1CCCC1)c1ccccc1F`, the Potency is reported as inconclusive [inhibitor, full curve].
For `CCOC(=O)CCSc1nc(-c2ccc3c(c2)OCO3)cc(C(F)(F)F)c1C#N`, the Potency was “inactive”.
With `COCCNC(=O)c1ccc2nc(Cc3ccc(OC)c(OC)c3)oc2c1` the Potency was inconclusive [activator, full curve, poor fit].
With `O=C(CCl)N1N=C(c2ccco2)CC1c1ccco1` (stereo not drawn) the Potency was inconclusive [inhibitor, single point].
With `O=S(=O)(Nc1cccc(-c2ccc(N3CCCCCC3)nn2)c1)c1cccc(F)c1` the Potency was inconclusive [inhibitor, single point].
For `CCc1nc(NCc2ccc3c(c2)OCO3)c2oc3ccccc3c2n1`, the Potency was “inactive”.
In the case of `O=C1c2ccccc2C(Nc2cccc(C(F)(F)F)c2)N1Cc1ccco1` (stereo not drawn), the Potency is reported as inconclusive [inhibitor, single point].
For `CC(=O)N1/C(=C/c2ccc(N(C)C)cc2)C(=O)c2ccccc21`, the Potency was inconclusive [inhibitor, single point].
In the case of `Cn1cnc([N+](=O)[O-])c1N=C(N)N`, the Potency is reported as “inactive”.
In the case of `OC(COc1ccc(Br)cc1)CN1CCCC1` (stereo not drawn), the Potency is reported as “inactive”.
For `Nc1nc(-c2ccc(NC(=O)c3ccco3)cc2)cs1`, the Potency was inconclusive [inhibitor, partial curve].
In the case of `CCCCC(C(=O)NCCC(C)C)N(CCCN1CCOCC1)C(=O)c1snc(C(N)=O)c1N` (stereo not drawn), the Potency is reported as “inactive”.
For `CCCc1cc(C(=O)Nc2nccs2)cs1`, the Potency was active: 7.94 µM.
In the case of `CS(=O)(=O)NCc1csc(-c2ccccc2)n1`, the Potency is reported as inconclusive [inhibitor, single point].
In the case of `S=C(NCc1ccc(Cl)c(Cl)c1)NCc1ccco1`, the Potency is reported as inconclusive [inhibitor, single point].
With `CCOC(=O)C1(CCc2ccccc2)CCN(Cc2ccccn2)CC1` the Potency was active: 11.2 µM.
With `CCS(=O)(=O)Nc1ccc(C2=NN(S(C)(=O)=O)C(c3cccs3)C2)cc1` (stereo not drawn) the Potency was inconclusive [activator, full curve, poor fit].
In the case of `COc1ccc(/C=C/C(=O)Nc2ccccc2C(=O)O)cc1`, the Potency is reported as active: 10 µM.
With `Cc1c(C(=O)N2CCN(c3cccc(Cl)c3)CC2)cccc1[N+](=O)[O-]` the Potency was “inactive”.
With `COc1cc2nc(NC(=O)c3ccc(Cl)cc3)sc(=O)c2cc1OC` the Potency was “inactive”.
For `C=CCNC(=O)CC(=O)N/N=C/c1ccccc1F`, the Potency was inconclusive [inhibitor, partial curve].
For `CC(=O)NS(=O)(=O)c1ccc(NC(=O)C(Sc2ccccc2)c2ccccc2)cc1` (stereo not drawn), the Potency was “inactive”.
For `CC(C)(C)c1cc(CCC(=O)N2CCC2)cc(C(C)(C)C)c1O`, the Potency was “inactive”.
With `CC(C)Oc1ccc(CNC(=S)N/N=C/c2ccc([N+](=O)[O-])cc2)cc1` the Potency was active: 3.16 µM.
With `C/C(=N\NC(=O)c1cccc(C)c1O)c1ccc(NC(=O)Cc2ccccc2)cc1` the Potency was inconclusive [inhibitor, single point].
In the case of `COc1ccc(C(=O)NC(=S)Nc2ccc3c4c(cccc24)CC3)cc1OC`, the Potency is reported as inconclusive [inhibitor, single point].
With `CCn1c(=O)c(C(=O)NNC(=O)c2ccccc2Cl)c(O)c2ccccc21` the Potency was inconclusive [inhibitor, single point].
With `Cc1ccc(-c2n[nH]c(=O)c3ccccc23)cc1S(=O)(=O)Nc1ccccc1` the Potency was inconclusive [inhibitor, single point].
In the case of `COc1ccc(OC)c(NC(=O)c2cccc(NC(=O)c3ccccc3)c2)c1`, the Potency is reported as “inactive”.
In the case of `CCC1(C)CC(CC(=O)O)(c2ccccc2OC)CCO1` (stereo not drawn), the Potency is reported as “inactive”.
In the case of `CC1CCN(C(=S)NC(=O)c2ccco2)CC1`, the Potency is reported as active: 6.31 µM.
In the case of `COc1ccc(/C=N/NC2=NS(=O)(=O)c3ccccc32)cc1`, the Potency is reported as inconclusive [inhibitor, single point].
With `CCOc1ccccc1N=C1SC(CC(=O)Nc2ccc(OC)cc2OC)C(=O)N1CCC1=CCCCC1` (stereo not drawn) the Potency was inconclusive [inhibitor, single point].
In the case of `COc1ccc(C(=O)/C=C/c2ccc(OC)c(O)c2)c(F)c1`, the Potency is reported as inconclusive [inhibitor, single point].
With `COc1ccccc1/C=C1\SC(=S)N(CC(=O)Nc2nnc(C)s2)C1=O` the Potency was inconclusive [inhibitor, single point].
With `O=c1c(=Nc2ccccc2O)c(=O)c2ccccc12` the Potency was inconclusive [activator, partial curve].
With `COc1ccc(Br)cc1C(=O)NC(=S)Nc1cc(-c2nc3ccccc3[nH]2)ccc1C` the Potency was inconclusive [activator, partial curve].
